Reference: PubChem BioAssay AID2060615 (Molecular Pharmacology Branch, DTP, NCI, 2025)
For part of its entries the source gives two or more results. This list holds those alone. The source may hold further records. The values listed for one entry are repeats in other runs, samples, wells, individuals or studies.

Tested on: 496974-208-R-J2-PDC complex spheroids, growth % test/control
Experiment: Anticancer human tumor 496974-208-R-J2-PDC patient-derived pancreatic carcinoma cell line growth inhibition [CLK]
Details: compound alone
Text: A high-throughput screen of multi-cell type tumor spheroids was designed to identify active combinations of […] and targeted small molecules. Complex spheroids include a stromal component modeled by human endothelial cells (HUVEC) and fibroblasts modeled by human mesenchymal stem cells (MSCs). The concentration ranges selected for each drug and investigational agent were based upon clinically achievable concentrations if the clinical Cmax of the agent was known.
Compounds. The drugs and investigational agents: cirtuvivint (SM08502; NSC835563), CC-671 (NSC850746), vemurafenib (NSC761431), tapotoclax (NSC804041), sotorasib (NSC818433), adagrasib (NSC831453), MRTX-1133 (NSC836407), BAY2416964 (NSC825713), copanlisib (NSC816437), inavolisib (NSC800729), abemaciclib (NSC768073), osimertinib (NSC779217), entinostat (NSC756642), eltanexor (KPT-8602, NSC794443), venetoclax (NSC766270), ceralasertib (NSC777638), bortezomib (NSC756655), olaparib (NSC753686), talazoparib (NSC767125), alisertib (NSC759677), peposertib (NSC802822), gemcitabine (NSC613327), 5-fluorouracil (NSC19893), SN-38 (NSC673596), oxaliplatin (NSC266046), paclitaxel (NSC125973), and doxorubicin (NSC123127), were obtained from the National Cancer Institute (NCI) Developmental Therapeutics Program Chemical Repository. […] If the clinical Cmax for an agent had not been determined, the highest concentration tested was 10 microM. […]
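Note: spheroids exposed to the drugs for 7 days before readout.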

Compound: Nc1ccn(C2OC(CO)C(O)C2(F)F)c(=O)n1 (stereo unspecified)
- IC50: 855 nM and > 10 µM
